Measurements taken from the supplement of paper PMC8728848.
Some of the results follow.

Legend:
Test in all cases: glycan array binding signal (z-score within array); higher = stronger binding
Conditions in all cases: glycan notation: IUPAC condensed, linker removed; mutation: Y228A
[1] = biological target: GlcNAc(b1-3)Gal(b1-4)GlcNAc(b1-3)Gal(b1-4)GlcNAc(b1-3)Gal(b1-4)GlcNAc(b1-3)Gal(b1-4)GlcNAc(b1-2)[GlcNAc(b1-3)Gal(b1-4)GlcNAc(b1-3)Gal(b1-4)GlcNAc(b1-3)Gal(b1-4)GlcNAc(b1-3)Gal(b1-4)GlcNAc(b1-6)]Man(a1-6)[GlcNAc(b1-3)Gal(b1-4)GlcNAc(b1-3)Gal(b1-4)GlcNAc(b1-3)Gal(b1-4)GlcNAc(b1-3)Gal(b1-4)GlcNAc(b1-2)Man(a1-3)]Man(b1-4)GlcNAc(b1-4)[Fuc(a1-6)]GlcNAc
Summary of the method: (§1)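 Glycan array data came from 3228 arrays in the Consortium for Functional Glycomics database, and only arrays with an available protein sequence were kept. Glycan names were put into IUPAC-condensed notation, and columns mapping to the same glycan were averaged. The binding signal is a within-array Z-score, averaged across arrays of one protein sequence run at different concentrations or buffers and across linkers. A negative Z-score can be read as non-binding.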

[2] = biological target: GlcNAc(b1-3)Gal(b1-4)GlcNAc(b1-3)Gal(b1-4)GlcNAc(b1-3)GalNAc
Summary of the method: as §1

[3] = biological target: GlcNAc(b1-3)Gal(b1-4)GlcNAc(b1-3)GalNAc
Summary of the method: as §1

[4] = biological target: GlcNAc(b1-3)Gal(b1-4)GlcNAc(b1-3)[GlcNAc(b1-3)Gal(b1-4)GlcNAc(b1-3)]GalNAc
Summary of the method: as §1

[5] = biological target: GlcNAc(b1-3)Gal(b1-4)GlcNAc(b1-6)[Gal(b1-3)]GalNAc
Summary of the method: as §1

[6] = biological target: GlcNAc(b1-3)Gal(b1-4)GlcNAc(b1-6)[GlcNAc(b1-3)Gal(b1-3)]GalNAc
Summary of the method: as §1

[7] = biological target: GlcNAc(b1-3)Gal(b1-4)GlcNAc(b1-6)[GlcNAc(b1-3)]Gal(b1-4)GlcNAc
Summary of the method: as §1

[8] = biological target: GlcNAc(b1-3)GalNAc
Summary of the method: as §1

[9] = biological target: GlcNAc(b1-3)Man
Summary of the method: as §1

[10] = biological target: GlcNAc(b1-3)[GlcNAc(b1-4)][GlcNAc(b1-6)]GlcNAc
Summary of the method: as §1

[11] = biological target: GlcNAc(b1-3)[GlcNAc(b1-6)]Gal(b1-4)GlcNAc
Summary of the method: as §1

[12] = biological target: GlcNAc(b1-3)[GlcNAc(b1-6)]GalNAc
Summary of the method: as §1

[13] = biological target: GlcNAc(b1-4)Gal(b1-4)GlcNAc
Summary of the method: as §1

[14] = biological target: GlcNAc(b1-4)GlcNAc
Summary of the method: as §1

[15] = biological target: GlcNAc(b1-4)GlcNAc(b1-4)GlcNAc
Summary of the method: as §1

[16] = biological target: GlcNAc(b1-4)GlcNAc(b1-4)GlcNAc(b1-4)GlcNAc(b1-4)GlcNAc
Summary of the method: as §1

[17] = biological target: GlcNAc(b1-4)GlcNAc(b1-4)GlcNAc(b1-4)GlcNAc(b1-4)GlcNAc(b1-4)GlcNAc
Summary of the method: as §1

[18] = biological target: GlcNAc(b1-4)[GlcNAc(b1-6)]GalNAc
Summary of the method: as §1

[19] = biological target: GlcNAc(b1-6)Gal(b1-4)GlcNAc
Summary of the method: as §1

[20] = biological target: GlcNAc(b1-6)GalNAc
Summary of the method: as §1

[21] = biological target: GlcNAc6S(b1-3)Gal(b1-4)GlcNAc
Summary of the method: as §1

[22] = biological target: Kdn(a2-3)Gal(b1-3)GalNAc
Summary of the method: as §1

[23] = biological target: Kdn(a2-3)Gal(b1-3)GlcNAc
Summary of the method: as §1

[24] = biological target: Kdn(a2-3)Gal(b1-4)Glc
Summary of the method: as §1

[25] = biological target: Kdn(a2-3)Gal(b1-4)GlcNAc
Summary of the method: as §1

[26] = biological target: Kdn(a2-3)Gal(b1-4)[Fuc(a1-3)]GlcNAc
Summary of the method: as §1

[27] = biological target: Kdn(a2-6)Gal(b1-4)GlcNAc
Summary of the method: as §1

[28] = biological target: Man(a1-2)Man(a1-2)Man(a1-3)Man
Summary of the method: as §1

[29] = biological target: Man(a1-2)Man(a1-2)Man(a1-6)[Man(a1-3)]Man
Summary of the method: as §1

[30] = biological target: Man(a1-2)Man(a1-3)Man
Summary of the method: as §1

B1: Epa1-NP-mutant-Y228A (Candida glabrata), Q6VBJ0 (protein)
chain: MILNPALFLNKCVCIYTTLILLLLTNGGYATSSNDISLASKDPTTFPLGCSPDITTPKKGLSMELYSYDFRKKGSYPCWDAAYLDPNYPRTGYKSHRLLAKVDGVTGNINFYYHATKGCTPQLGHLPASYNYPKPLTMTNFTMLLYGYFRPKVTGFHTFTISADDLLFVNFGAGNAFDCCRRDSSADHFGNYQAYAIWGSKTAKDELTVHLDAGVYYPIRLFYNNREADGALSFTFKTESNENTVSDFSEYFFSLDDTEEGCPGLISYDSSCASVKTSKIIGIDYHTETPNENLVPITKTIYHLGIPCTGTTTTPLCGSGFYDPLANKCVTINTSSTSSVTKTTSHTTSKEVSFHSSISSQKTLIPKSIPSPYGPIKSQSIPTEMETSSEISSSEYAFSDVISTPSHSPYTKKHSSLNSSSYTSTVIHSLTSYSISQGIFSTSLSEQNITSKSSTDKFSTATSMSNNITQSSIIISQFSTNNENYTTTSMHTSSDKISTETLNNSISTTTSILFSNSSTILKNNTTIISSDKDTHYHPVNPTIVCSTNKTEIICASITQPSISNSNNHWSSSVLKFNSTTVRSTLPSSAGSNETSINVPFSSSTESNTSTSSTSTSNSKMVRSTLPSSAGSNETSISVPFSSSTESNTSTSSTSTSNSKMVRSTLPSSAGSNETSINVPFSSSTESNTSTSSTSTSNSKTVRSTPFSSAGIIMTSLSQRNNKSASSYASSNSKCYNTADSCRKVHSTPSYLLTSSYTSEGVDYDCSLVSTKLKINDTNCVNNKHTTKSCLKTSVTTTIPTLEIKTARKSSSNTIGLHSYPTSSPNKSISSAPIIGYISSFKTIKTASPSYQTSDLTTITTITSLNNPGSTAVENTHESNDKSRKTSSNDISSKHSVIKETKDAVESSNKSHQTNTLKCSSIIIASSSHNSYESLGGTTLTLTLSKVYSPQNNDTLPFLEISEVNPSRTVLPESSKMMQYLTSTEERNKTARNTIATNIVSISTFHFEGEGNAIRMGYTQLLLMLIGIIVMNIGT
glycan array binding signal (z-score) [1]: 0.081
glycan array binding signal (z-score) [2]: -0.188
glycan array binding signal (z-score) [3]: -0.244
glycan array binding signal (z-score) [4]: -0.203
glycan array binding signal (z-score) [5]: -0.012
glycan array binding signal (z-score) [6]: -0.089
glycan array binding signal (z-score) [7]: -0.315
glycan array binding signal (z-score) [8]: -0.218
glycan array binding signal (z-score) [9]: -0.295
glycan array binding signal (z-score) [10]: -0.146
glycan array binding signal (z-score) [11]: -0.235
glycan array binding signal (z-score) [12]: -0.277
glycan array binding signal (z-score) [13]: -0.064
glycan array binding signal (z-score) [14]: -0.279
glycan array binding signal (z-score) [15]: -0.167
glycan array binding signal (z-score) [16]: -0.213
glycan array binding signal (z-score) [17]: -0.261
glycan array binding signal (z-score) [18]: -0.288
glycan array binding signal (z-score) [19]: 0.495
glycan array binding signal (z-score) [20]: -0.255
glycan array binding signal (z-score) [21]: 1
glycan array binding signal (z-score) [22]: -0.251
glycan array binding signal (z-score) [23]: -0.162
glycan array binding signal (z-score) [24]: -0.129
glycan array binding signal (z-score) [25]: -0.29
glycan array binding signal (z-score) [26]: -0.122
glycan array binding signal (z-score) [27]: -0.22
glycan array binding signal (z-score) [28]: -0.277
glycan array binding signal (z-score) [29]: -0.127
glycan array binding signal (z-score) [30]: -0.176
